In paper PMC4336329 (PLoS ONE, 2015):
Screen size: about 310,000 compounds; about 2,200 (0.71%) showed an effect of 50% or more. The effect is printed as a negative number. This is one part of the list. Where a SMILES comes first, the peptide text is derived from it. The star is where a group is joined. Boc = CC(C)(C)OC(=O)*; OBn = c1ccc(CO*)cc1

Target: human ether-à-go-go-related gene (hERG) potassium channel (human, UniProt Q12809)
Test: primary screen, population patch clamp on CHO cells stably expressing hERG

Sequence of human ether-à-go-go-related gene (hERG) potassium channel (Q12809 whole entry, looked up): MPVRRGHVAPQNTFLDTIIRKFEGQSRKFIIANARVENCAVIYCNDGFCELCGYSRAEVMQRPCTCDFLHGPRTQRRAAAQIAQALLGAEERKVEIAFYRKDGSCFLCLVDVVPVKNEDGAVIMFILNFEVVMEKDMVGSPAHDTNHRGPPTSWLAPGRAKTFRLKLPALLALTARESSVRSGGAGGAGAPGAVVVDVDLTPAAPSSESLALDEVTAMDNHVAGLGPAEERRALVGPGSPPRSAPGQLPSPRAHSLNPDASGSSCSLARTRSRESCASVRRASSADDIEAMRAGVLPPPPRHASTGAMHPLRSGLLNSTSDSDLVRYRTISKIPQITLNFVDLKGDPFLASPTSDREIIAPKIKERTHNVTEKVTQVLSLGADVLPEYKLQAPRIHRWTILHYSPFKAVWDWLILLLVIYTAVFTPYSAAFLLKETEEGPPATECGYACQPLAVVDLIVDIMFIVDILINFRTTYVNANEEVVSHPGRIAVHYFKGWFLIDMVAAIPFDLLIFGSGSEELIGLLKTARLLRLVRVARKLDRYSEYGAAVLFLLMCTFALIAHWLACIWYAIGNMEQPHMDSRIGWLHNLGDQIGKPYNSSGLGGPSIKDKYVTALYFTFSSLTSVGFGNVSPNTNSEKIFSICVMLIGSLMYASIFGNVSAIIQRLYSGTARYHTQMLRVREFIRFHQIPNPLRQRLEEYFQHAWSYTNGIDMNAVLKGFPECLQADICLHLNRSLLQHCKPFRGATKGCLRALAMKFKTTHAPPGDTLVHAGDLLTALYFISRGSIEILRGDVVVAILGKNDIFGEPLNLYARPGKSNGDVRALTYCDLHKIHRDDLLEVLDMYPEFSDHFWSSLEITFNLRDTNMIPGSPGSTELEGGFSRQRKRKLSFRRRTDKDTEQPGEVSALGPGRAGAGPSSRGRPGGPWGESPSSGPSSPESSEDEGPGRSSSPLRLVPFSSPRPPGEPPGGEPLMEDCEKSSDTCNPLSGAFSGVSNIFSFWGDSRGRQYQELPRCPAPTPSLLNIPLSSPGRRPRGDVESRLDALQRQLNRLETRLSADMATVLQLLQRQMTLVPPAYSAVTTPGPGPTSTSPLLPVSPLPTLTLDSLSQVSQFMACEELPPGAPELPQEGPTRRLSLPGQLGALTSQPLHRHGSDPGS

Compound	hERG current change (%, negative = inhibition) at 1uM
CCOC(=O)c1sc(=S)n(-c2ccccc2)c1N(C(C)=O)C(C)=O	15.5%
CC1=C(C(=O)OCC(C)C)C(c2cccs2)NC(=S)N1 (stereo not shown)	8.49%
CCCCN(CC)C(=O)c1cccc(Cl)c1	10%
Cc1nonc1OCCNCc1c(C(=O)N2CCCCCCC2)nc2ccc(Cl)cn12	9.53%
COC(=O)c1ccc(CSc2nnc(Nc3cccc(OC)c3)s2)o1	10.7%
CN(CC(=O)NCc1ccccc1)CC(=O)Nc1ccc(Cl)c(C(F)(F)F)c1	2.05%
COCCCn1c(SCc2nnc(-c3ccc(OC)c(OC)c3)o2)nnc1-c1ccncc1	5.03%
C(=N\Nc1nnnn1-c1ccccc1)/c1ccncc1	10.5%
O=[N+]([O-])c1cccc(-c2cn3nc(-c4ccccc4)c(-c4ccccc4)nc3n2)c1	1.03%
C=CCn1c(SCC(=O)Nc2ccc(C(=O)OCC)cc2)nnc1-c1cccs1	12.3%
CCCOC(=O)C1C2C=CC3(CN(c4ccc(Cl)c(F)c4)C(=O)C13)O2 (stereo not shown)	5.82%
Cc1ccccc1C1NC(=S)NC2=C1C(=O)CCC2 (stereo not shown)	7.89%
O=C(CCC(=O)N1CCCCCC1)NCc1ccc(F)cc1	3.53%
Cc1cc(N)ccc1-c1cc2ccccc2oc1=O	17.4%
O=c1[nH]c(CSc2ncc(C(F)(F)F)cc2Cl)nc2ccccc12	11.6%
CCc1nc2nc(C)c(NS(=O)(=O)c3ccc(Cl)cc3)c(=O)n2[nH]1	5.56%
Cc1ccc2nc(N3CCN(c4cccc(C)c4C)CC3)c3nnnn3c2c1	10.1%
COC(=O)c1cc(C(=O)N2CCN(c3ccccc3OC)CC2)cc([N+](=O)[O-])c1	-6.52%
Cc1cccnc1-n1c(-c2ccco2)nc2ccccc2c1=O	14%
COc1ccc(-c2ccc(C(=O)O)o2)c([N+](=O)[O-])c1	14.5%
O=C(NCCN1CCOCC1)c1cc2sccc2n1Cc1ccc(Cl)cc1	-13.4%
Cc1ccnc(NS(=O)(=O)c2ccc(NC(=O)C(C)(C)C)cc2)n1	12.6%

Compound	hERG current change (%, negative = inhibition) at 1uM
Cc1nc(C(=O)Nc2ccccc2)sc1C1(C)CC(c2cccnc2)=NO1 (stereo not shown)	11.5%
FC(F)(F)c1ccc(Cl)c(-n2c(-c3ccco3)n[nH]c2=S)c1	10.7%
O=C(Nc1nnc(C2CC2)s1)C1CCCCC1	-1.02%
COC(=O)C12CC3CC(C1)CC(n1cnc(Cl)n1)(C3)C2	-1.91%
CCOC(=O)CN1NC2(CCC(C)CC2)NC1=S (stereo not shown)	6.86%
COc1ccc(C(=O)c2ccc(OC)cc2OC)cc1	14.1%
CCc1ccccc1NC(=O)CN1CCN(C(=O)CN2C(=O)NC3(CCCC3)C2=O)CC1	7.11%
CCN(C(=O)CN1CCCCC1)c1c(N)n(Cc2ccccc2)c(=O)[nH]c1=O	5.48%
CCn1c(SCC(=O)Nc2ccc(C(C)=O)cc2)nc2ccccc21	1.49%
COc1cc(C)nc(N(Cc2ccccc2)S(=O)(=O)c2ccc(C)cc2)n1	4.51%
CC1CC(C)(C)NC(=S)N1CCCC(=O)Nc1ccc(Br)cc1 (stereo not shown)	10.5%
O=c1[nH]n(-c2ccc(Cl)cc2)c(=O)c(Cl)c1Cl	10.6%
Cc1c(OCC(=O)NC(Cc2ccc(Cl)cc2)C(=O)O)ccc2c1oc(=O)c1ccccc12 (stereo not shown)	2.86%
CC1CCCN(CCCNC(=O)c2ccc(CS(=O)(=O)c3c(Cl)cccc3Cl)o2)C1 (stereo not shown)	4.14%
N#CC(Nc1ccccc1)c1ccccc1OCc1ccccc1 (stereo not shown)	8.4%
Cc1cccc(N2CCN(Cc3oc(CO)cc(=O)c3O)CC2)c1C	13.7%
Cc1cccc(CN2CCN(c3ccc(Cl)cc3)CC2)c1	12.7%
CN(C)c1cccc(C(=O)OCC(=O)Nc2nccs2)c1	14.1%
COc1ccc(NC(=O)CCC(=O)Nc2nnc(C(F)(F)F)s2)c(OC)c1	5.23%
CCOc1ccc(NS(=O)(=O)c2cc3c(cc2C)N(C)CCO3)cc1	9.19%
Cc1ccc(Cl)cc1NS(=O)(=O)Cc1ccccc1	14.1%
CC(C)NC(=S)NN=C1c2ccccc2-c2ccccc21	9.27%

Compound	hERG current change (%, negative = inhibition) at 1uM
CN(C)c1cccc(C(=O)Nc2cccc(S(=O)(=O)NC3=NCCC3)c2)c1	17%
CN(c1ccc([N+](=O)[O-])cc1C(=O)Nc1ccccc1)C1CCCCC1	-0.371%
COCc1ccc(CN2CCCC(C(=O)Nc3ccc(-c4cscn4)cc3)C2)o1 (stereo not shown)	18.1%
COc1ccc(-n2c(SCC(=O)NCc3cccs3)nnc2-c2ccoc2C)cc1	-55.9%
CC(C)C(NC(=O)c1ccco1)C(=O)NCC(c1ccco1)N(C)C (stereo not shown)	14.8%
O=C(NCCSc1ccccn1)c1ccc(Cl)cc1	-0.123%
COc1cccc(C2=CC(=O)CC(C)(C)C2)c1	11.1%
O=C(Cn1nnc(-c2ccccc2-n2cnnn2)n1)c1ccccc1	5.12%
Cc1cc(C(=O)NNC(=S)NCc2ccco2)nn1C	17.5%
Cc1ccc(C(=O)Nc2nnc(S(=O)(=O)N3CCC(C)CC3)s2)cc1	14.4%
O=C(CCC(=O)N1CCN(S(=O)(=O)c2ccc3ccccc3c2)CC1)Nc1cc(Cl)cc(Cl)c1	9.32%
COC(=O)N/N=C(C)\C=C\c1ccco1	20.4%
COc1cc(/C=N/NC(=O)CCc2c(C)n[nH]c2C)cc(OC)c1OC	12.1%
CN1CCc2c(sc3c2c(=O)n(-c2ccc(Cl)cc2)c2nncn32)C1	6.78%
Cc1ccc(S(=O)(=O)N2CCCOC2CNC(=O)C(=O)NCCC2=CCCCC2)cc1 (stereo not shown)	4.67%
CCOc1ccc2ccccc2c1/C=N\NC(=O)c1ccc([N+](=O)[O-])cc1	10.5%
COc1ccc(C2CCCN2C(=S)Nc2cccc(Cl)c2C)cc1OC (stereo not shown)	2.08%
COc1ccc(N(CC(=O)NN=C2CCN(C)CC2)S(=O)(=O)c2ccc(NC(C)=O)cc2)cc1	11.3%
CC1(c2nnc(Cc3ccccc3)o2)CC(c2ccccc2F)=NO1 (stereo not shown)	14.1%
C=CCN(C(=O)CNS(=O)(=O)c1ccccc1)C(C(=O)NCCOC)c1ccncc1 (stereo not shown)	12.3%
CCN(CC)S(=O)(=O)c1ccc2c3c(cccc13)C(=O)N2	4.19%
O=C(COc1ccc(-c2ccccc2)cc1)NNC(=O)NC1CCCCC1	13.2%

Compound	hERG current change (%, negative = inhibition) at 1uM
Cc1ccc(C(=O)OCC(=O)NCc2ccco2)cc1C	10.3%
Cc1noc(NS(=O)(=O)c2ccc(N/C=C\C(=O)c3cccs3)cc2)c1C	13.6%
CCN(CC)c1ccc([N+](=O)[O-])cc1C(=O)N1CCOCC1	5.14%
Cc1ccccc1NC(=O)Nc1nnc(CC(=O)NCc2ccccc2)s1	-6.04%
CCc1nc(SCc2ccc(Cl)cc2)n[nH]1	11.9%
Cc1cccc2cc3c(nc12)-c1ccccc1C3=O	14.8%
Cc1c(C#N)c(O)n(CCO)c(=O)c1N=Nc1ccc(S(N)(=O)=O)cc1	-1.63%
CCOC(=O)CNC(=O)c1ccccc1	7.32%
CCOc1cc(S(=O)(=O)NCc2ccncc2)ccc1Cl	7.07%
Cc1ccccc1N/C(=N/S(=O)(=O)c1cc(F)ccc1F)c1ccccc1	10.3%
COc1ccc(Nc2nc(Cl)nc(NCCO)n2)cc1	4.45%
CC(C)C(NC(=O)OC(C)(C)C)C(=O)NC(CCC(=O)OCc1ccccc1)C(N)=O (stereo not drawn) (Boc-Val-Glu(OBn)-NH2; configuration not given here)	-4.76%
CCc1cccc2c1NC(=O)C21N2CCCC2C(C(=O)c2ccc3ccccc3c2)C12C(=O)Nc1ccccc12 (stereo not shown)	6.17%
Cc1cc(NC(=O)c2ccc(N3C(=O)C4C5C=CC(C5)C4C3=O)cc2)no1 (stereo not shown)	12.6%
CC1(C)Cc2c(sc3nc(SCC(=O)O)nc(N)c23)CO1	14.4%
CC1CCN(C(=O)CSc2nnc3c(n2)[nH]c2ccc(F)cc23)CC1	-19%
O=C(CNC(=O)c1cccc(Cl)c1)Nc1ccc(F)c(F)c1F	7.3%
Cc1cccc(C2NC(c3cccc(C)c3)C([N+](=O)[O-])C(C)(C)C2[N+](=O)[O-])c1 (stereo not shown)	7.86%
N#Cc1c(-c2ccccc2)c(-c2ccccc2)n(Cc2ccco2)c1NC(=O)c1cccs1	15.9%
CCN(CC(=O)Nc1ccccc1C(F)(F)F)C(=O)c1cc(S(=O)(=O)N2CCCCCC2)ccc1OC	11.8%
Cc1cc(C)cc(C(=O)NC(=S)Nc2ccc3c(c2)OCCO3)c1	-4.67%
O=C(COC(=O)CNC(=O)c1cccc(F)c1)NCCC1=CCCCC1	12.4%
